In PubChem BioAssay AID686979 (National Center for Advancing Translational Sciences (NCATS), 2013):
The whole screen tested about 420,000 compounds, of which about 50,000 (12%) were called active. Inconclusive means that the source gave no clear call. Such entries were picked first, then a sample of the others. Calls come from the whole dose curve; as a rule, active = well fitted inhibition curve with a large enough effect; inconclusive = small, poorly fitted or top-dose-only effect; inactive = flat fitted curve, though single readings scatter. No potency is given beside an inconclusive call; the fits are too rough.
% is set by controls: 0 for no effect and ±100 for the full control effect; potency is the fitted concentration of half-maximal effect; tags give direction and shape of the fitted curve.

Test: qHTS for Inhibitors of human tyrosyl-DNA phosphodiesterase 1 (TDP1): qHTS in cells in presence of CPT; note: nearly all actives have a fitted effect of over 55% in size
Conditions: chicken DT40 Tdp1-/-;hTDP1 cells + 20 nM CPT, ATP luminescence, 48 h; activity change, negative = growth inhibition: at 46.2 µM (top of the series) unless noted
Method in brief: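 Chicken DT40 Tdp1-/- cells stably complemented with human TDP1 were seeded at 400 cells/well in medium containing 20 nM camptothecin, exposed to pin-transferred compounds, and grown at 37 °C for at least 48 hr. Viability was read as ATP luminescence.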
With Cc1ccc2nc(-c3ccc(Br)o3)oc(=O)c2c1 the Potency was inconclusive [inhibitor, single point].
With CCN(CC)C(=O)C1=C(C)N(Cc2ccc(C(C)(C)C)cc2)C(=O)C(CC(=O)NCc2ccco2)C1 (centres undefined) the Potency was inconclusive [inhibitor, single point].
For COc1ccc(NC(=O)Cn2ncc(Cl)c(Cl)c2=O)cc1S(=O)(=O)N1CCOCC1, the Potency was active: 11.6 µM.
For CNC(=S)N(CCc1c(C)[nH]c2ccc(OC)cc12)Cc1cccnc1, the Potency was “inactive”.
In the case of CCc1cccc(C)c1NS(=O)(=O)Cc1ccccc1, the Potency is reported as inconclusive [inhibitor, single point].
With Cc1ccc(S(=O)(=O)NCc2ccc(C(=O)NCCN(Cc3ccccc3)C(C)C)cc2)cc1 the Potency was inconclusive [inhibitor, single point].
For CCOc1ccc(-n2c(C)nnc2SCC(=O)N(CC)CC)cc1, the Potency was “inactive”.
In the case of COc1cccc(C2SCC(=O)N2c2ccc(Cl)cc2)c1OC (centres undefined), the Potency is reported as “inactive”.
In the case of O=C(CCCCC(=O)NN=Cc1ccc(Cl)cc1)NN=Cc1ccc(Cl)cc1, the Potency is reported as inconclusive [inhibitor, full curve].
For CCCN(CCC)C(=O)CSc1nc2n[nH]c(C)c2c(=N)n1-c1ccc(OC)cc1, the Potency was active: 13 µM.
In the case of Cc1ccc(NCc2cccn2-c2nnc(N3CCC(C(=O)NCCC(C)C)CC3)s2)cc1, the Potency is reported as inconclusive [inhibitor, single point].
In the case of COc1cc(OC)cc(-c2cc3cc(F)ccc3cn2)c1, the Potency is reported as inconclusive [inhibitor, single point].
In the case of Cc1sc2nc(SCC(=O)c3cccs3)n(Cc3ccco3)c(=O)c2c1C, the Potency is reported as inconclusive [inhibitor, partial curve].
For COc1ccc(C(NC(=O)c2ccc(-c3ccccc3)cc2)c2ccccc2)cc1 (centres undefined), the Potency was active: 13 µM.
In the case of CCOC(=O)c1ccc(Nc2c(-c3cccc(O)c3)nc3nc[nH]n23)cc1, the Potency is reported as inconclusive [inhibitor, single point].
In the case of COc1ccccc1/C=C1\SC(=O)N(CCC(=O)N(C)C2CCS(=O)(=O)C2)C1=O (centres undefined), the Potency is reported as “inactive”.
In the case of NNC(=O)/C(=C\c1ccc(Br)cc1)NC(=O)c1cccs1, the Potency is reported as “inactive”.
With O=C(Nc1ccc(NC(=O)C2CC2)nc1)c1cccc(F)c1 the Potency was “inactive”.
With CCOC(=O)/C(C)=N/Nc1nc(-c2ccc(NC(C)=O)cc2)cs1 the Potency was inconclusive [inhibitor, single point].
With CC(NC(=O)CCC(=O)c1ccc(F)cc1)C1CC2CCC1C2 (centres undefined) the Potency was “inactive”.
With COc1ccc(-c2noc(CSc3nc4ccccc4c(=O)n3-c3ccccc3)n2)cc1OC the Potency was inconclusive [inhibitor, single point].
For CC(C)C[C@H](NC(=O)[C@@H]1Cc2c([nH]c3ccccc23)C2c3ccccc3C(=O)N21)C(=O)NCC1CCCO1 (some centres undefined), the Potency was active: 16.4 µM.
With CCCCC(CC)CNCc1cccn1CCN1CCOCC1 (centres undefined) the Potency was inconclusive [inhibitor, single point].
In the case of O=C(Nc1c(-c2ccc3c(c2)OCO3)[nH][nH]c1=O)c1ccc2c(c1)OCO2, the Potency is reported as “inactive”.
For COc1ccc([N+](=O)[O-])cc1NC(=O)CC1SC(=Nc2cccc(C)c2C)N(/N=C/c2cccc(OC)c2OC)C1=O (centres undefined), the Potency was “inactive”.
For COc1ccc(NC(=O)c2n[nH]c(=O)c3ccccc23)cc1S(=O)(=O)N1CCCCC1, the Potency was inconclusive [inhibitor, single point].
In the case of CCOc1ccc(S(=O)(=O)NCCc2csc3nc(-c4ccc(F)cc4)nn23)cc1, the Potency is reported as active: 11.6 µM.
For CCOC(=O)c1c(NC(=O)CN2CCOCC2)sc2c1CCCC2, the Potency was inconclusive [inhibitor, partial curve, poor fit].
With Cc1ccc(-c2nn(Cc3ccccc3)cc2/C=C/C(=O)O)cc1 the Potency was “inactive”.
For CC1CCC(NC(=O)c2ccc(CS(=O)(=O)c3cccc(C(F)(F)F)c3)o2)CC1 (centres undefined), the Potency was inconclusive [inhibitor, single point].
With Cc1cc(C(=O)Nc2ccccc2N2CCOCC2)c(C)o1 the Potency was inconclusive [inhibitor, single point].
In the case of O=C(NCc1cccs1)c1ccc(CSc2nc3ccncc3n2Cc2ccccc2)cc1, the Potency is reported as inconclusive [inhibitor, single point].
For Cc1[nH]c2ccccc2c1SCCNC(=O)c1ccc(Br)o1, the Potency was “inactive”.
For COc1ccc(-c2coc3c(C(=O)Nc4cccc(NS(C)(=O)=O)c4)cccc23)c(C)c1, the Potency was inconclusive [inhibitor, single point].
In the case of CCOC(=O)C1=C2N(C)c3ccccc3N2CCC1=O, the Potency is reported as “inactive”.
For Cc1ccc(Cl)cc1N1CCN(CCCNC(=O)C2COc3ccccc3C2)CC1 (centres undefined), the Potency was active: 3.26 µM.
For COc1ccc(C(=O)NNC(=O)C(=O)NC2CCCCC2)cc1, the Potency was “inactive”.
With CCc1ccccc1NS(=O)(=O)c1ccc2c(c1)C(C)(C)C(=O)N2C the Potency was inconclusive [inhibitor, single point].
In the case of CCOC(=O)c1ccc(NC(=O)Cn2c(=O)cc(C(F)(F)F)c3c(C)nn(C)c32)cc1, the Potency is reported as “inactive”.
For CC(=O)Nc1nc(C)c(CCC2OCCO2)c(=O)[nH]1, the Potency was “inactive”.
With C=CCOc1c(Br)cc(/C=C2\SC(=Nc3ccccc3)NC2=O)cc1OC the Potency was inconclusive [inhibitor, single point].
For COc1ccc(CCNc2ncnc3c2nnn3Cc2ccccc2)cc1OC, the Potency was active: 23.1 µM.
For Cc1ccc(NC(=O)Cc2ccc(Cl)cc2)nc1, the Potency was “inactive”.
With CC(C)(Oc1ccc(Cl)cc1)C(=O)NC1CCN(Cc2ccccc2)CC1 the Potency was inconclusive [inhibitor, partial curve, poor fit].
In the case of COCCNC(=S)N(C)C1(c2ccccc2Cl)CCCCC1=O (centres undefined), the Potency is reported as “inactive”.
With CC(=O)c1ccc(OC2(C)CCN(Cc3ccc4c(c3)OCCO4)C2)cc1 (centres undefined) the Potency was “inactive”.
In the case of O=C(O)c1ccc(COc2ccccc2C=C2C(=O)c3ccccc3C2=O)cc1, the Potency is reported as “inactive”.
With Cc1ccccc1OC1C(=O)N(CC2CCCO2)C1c1ccc2c(c1)OCO2 (centres undefined) the Potency was active: 14.6 µM.
With COc1ccc(CNC(=O)Cn2c(=O)cc(C)c3c(C)nn(-c4cccc(Cl)c4C)c32)cc1 the activity change, negative = growth inhibition was inconclusive: -34.5% [inhibitor].
In the case of CS(=O)(=O)c1ccc(Cl)c(C(=O)NC2CCSc3ccccc32)c1 (centres undefined), the activity change, negative = growth inhibition is reported as inconclusive: -31.2% [inhibitor].
In the case of CCN(CC(=O)NCc1ccc(Cl)cc1)C(=O)CCc1ccccc1, the Potency is reported as inconclusive [inhibitor, single point].
With COc1ccc(-n2c(C)cc(/C=C3\C(=O)NN(c4ccccc4)C3=O)c2C)cc1 the Potency was “inactive”.
With Fc1ccc(CSc2nc(NCc3ccccc3)c3ccccc3n2)cc1 the Potency was inconclusive [inhibitor, single point].
For Cc1occc1C(=O)N1CCN(S(C)(=O)=O)CC1, the activity change, negative = growth inhibition was inconclusive: -35% [inhibitor].
For CCOc1ccc(Br)cc1S(=O)(=O)Nc1ccc(S(=O)(=O)Nc2cc(C)on2)cc1, the Potency was “inactive”.
For C(=N\Nc1ccccc1)/c1ccc(N2CCOCC2)cc1, the Potency was inconclusive [inhibitor, single point].
With CCc1cc2c(COC(=O)CCNS(=O)(=O)c3cccc(C(F)(F)F)c3)cc(=O)oc2cc1O the Potency was inconclusive [inhibitor, single point].
With COc1ccc(CN2C(=O)C(CC(=O)NC(c3ccccc3)c3ccccc3)CC(C(=O)N(C(C)C)C(C)C)=C2C)cc1 (centres undefined) the Potency was inconclusive [inhibitor, single point].
With O=C(Nc1cccc(Cl)c1)Nc1ccc2c(c1)OCO2 the Potency was inconclusive [inhibitor, single point].
In the case of Cc1ccc(-c2csc(N3CCC(C(N)=O)(N4CCCCC4)CC3)n2)cc1, the Potency is reported as inconclusive [inhibitor, single point].
In the case of CC(C)c1ccc(CC(=O)N2CCC2(C)C(=O)Nc2ccc3c(c2)OCCO3)cc1 (centres undefined), the Potency is reported as “inactive”.
In the case of COC(=O)c1c(NC(=O)C2CCCCC2)sc2c1CCN(C(C)C)C2, the Potency is reported as inconclusive [inhibitor, single point].
With CCCCN(c1ccc(C(=O)OC)cc1)S(=O)(=O)c1ccccc1 the Potency was inconclusive [inhibitor, partial curve].
With C#CCOc1ccc(/C=C2\SC(=S)N(Cc3cccnc3)C2=O)cc1 the Potency was active: 3.26 µM.
With CSc1ccccc1NC(=O)C1CCN(S(C)(=O)=O)CC1 the Potency was “inactive”.
For CN(CCCC1CCCC1)C(=O)CC1C(=O)NCCN1Cc1cccc(F)c1F (centres undefined), the Potency was inconclusive [inhibitor, single point].
For CC(=O)N(c1ccccc1C)S(=O)(=O)c1ccc(Cl)cc1, the Potency was inconclusive [inhibitor, single point].
With c1ccc(Oc2ccccc2-c2cc(NCCc3cccnc3)n3nccc3n2)cc1 the Potency was active: 18.4 µM.
For Cn1c(N)c(C(=O)NCc2ccccc2Cl)sc1=S, the Potency was inconclusive [inhibitor, single point].
For Cc1cc(C)c(S(=O)(=O)Nc2ccc(-c3ccc(N4CCCCCC4)nn3)cc2)cc1C, the Potency was inconclusive [inhibitor, single point].
For O=C(/C=C/c1ccccc1)Nc1cccc(C(=O)N2CCCCC2)c1, the Potency was inconclusive [inhibitor, single point].
With CCN(CC)c1ccc2cc(-c3nc(-c4ccccc4F)no3)c(=O)oc2c1 the Potency was “inactive”.
With Cn1cccc1C(=O)NNC(=O)COc1ccccc1Cl the Potency was “inactive”.
For C=C1c2cc3c(cc2NC(=S)N1Cc1ccccc1)OCO3, the Potency was active: 16.4 µM.
